The record followed here is ChEMBL document CHEMBL4888484, “Replenishing the malaria drug discovery pipeline: Screening and hit evaluation of the MMV Hit Generation Library 1 (HGL1) against asexual blood stage Plasmodium falciparum ,using a nano luciferase reporter read-out” (2022).

SMILES strings stand for the structures. In all, about 150,000 compounds went through this assay and about 540 (0.36%) showed an effect of 50% or more. The list shows a part of the results.

In this experiment the test system is Plasmodium falciparum. As to the kind of experiment: Primary screen in NF54 nanoGlo assay, in single point, at 2uM, 72h; a lower Z score goes with more inhibition. The experiment is classed as functional, Erythrocyte. Conditions: timepoint 72 hour.
As for `Cc1ccc(CNC(=O)Cc2nnc(-c3ccccn3)o2)cc1C`, the “% Inhibition” value was 2% and the Z score was -0.16.
For `Cc1cc(NC(=O)NCC2(O)CCCCCC2)nn1C1CCCCC1`, the “% Inhibition” value amounted to 0% and the Z score is recorded as -0.06.
As to `CCN(CC)c1ncnc2sc(C(=O)Nc3cccc(OC)c3)c(C)c12`, the “% Inhibition” value is on record as 3% and the Z score was -0.47.
In the case of `CC(=O)NC1C(Oc2cccc3cccnc23)OC(COC(C)=O)C(OC(C)=O)C1OC(C)=O` (stereo not drawn), the “% Inhibition” value was 5% and the Z score is -0.57.
As to `COc1ccc(CCN2C(=O)N[C@@H](CC(=O)NCCn3cccn3)C2=O)cc1`, the “% Inhibition” value amounted to 1% and the Z score is on record as -0.1.
For `Cc1ncsc1CCc1nc(-c2ncsc2Cl)no1`, in that order: -3% and 0.36.
As to `CC[C@]1(O)CCN(Cc2nccc(OC)c2OC)C[C@@H]1O`, the “% Inhibition” value stood at 3% and the Z score was -0.36.
With `Cc1cc(S(=O)(=O)N2CCc3ccc(F)c(C(=O)O)c3C2)c(C)s1`, the “% Inhibition” value is -10% and the Z score is 1.35.
For `CC(C)CCn1ccc(NC(=O)Nc2ccncc2)n1`, in that order: -12% and 1.38.
For `CC(=O)Nc1ccc(S(=O)(=O)Nc2cnc(N(C)C)nc2N(C)C)cc1`, in that order: 6% and -0.87.
For the molecule `O=C1CCN(CC(=O)N[C@H]2CCCc3ccccc32)CCN1`, the “% Inhibition” value is reported as 0% and the Z score is listed as 0.
Turning to `COCCC1(CNC(=O)Nc2cc(C3CCC3)nn2C)CCC1`, the “% Inhibition” value is on record as -5% and the Z score came to 0.76.
Regarding `CCc1nsc(N[C@H]2CCc3ncsc3C2)n1`, the “% Inhibition” value is -2% and the Z score was 0.21.
For `O=S1(=O)N[C@@H]2CN(CC3CC3)C[C@@H]2Oc2ccccc21`, in that order: -8% and 1.37.
As for `CC(=O)N(c1nc(CN(C2CC2)[C@@H](C)c2ccc(Cl)cc2)cs1)C1CC1`, the “% Inhibition” value is listed as -14% and the Z score worked out at 1.95.
For `O=C(Nc1cnccc1-n1cccn1)c1csc(C2CC2)n1`, the “% Inhibition” value is recorded as -22% and the Z score stood at 3.5.
As for `CC[C@H]1CCCN(C(=O)NCc2ccc(=O)[nH]n2)CC1`, the “% Inhibition” value is given as -6% and the Z score turned out to be 1.23.
Consider `C[C@@H](CCOc1ccccc1)C(=O)NCC#N`, for which the “% Inhibition” value is reported as 7% and the Z score is recorded as -1.01.
With `CN(CCNS(C)(=O)=O)c1cncc(Br)c1`, the “% Inhibition” value is reported as 13% and the Z score is on record as -1.81.
With `COc1cc2c(cc1OC)[C@H](c1ccccc1)N(Cc1cn3ccccc3n1)CC2`, the “% Inhibition” value was -9% and the Z score worked out at 1.7.
For the molecule `c1ccc(CN2CCN(CCO[C@@H]3CCCCO3)CC2)cc1`, the “% Inhibition” value was -21% and the Z score is 3.88.
`COC1([C@H](C)NC(=O)c2cccn2C)CCOCC1`: the “% Inhibition” value was -12% and the Z score is reported as 1.66.
Regarding `COc1ccc(C(=O)N[C@H]2CCCc3c2cnn3-c2cccc(C)c2C)o1`, the “% Inhibition” value is reported as -5% and the Z score came to 0.85.
Regarding `O=C(CCN1Cc2ccccc2C1)N[C@H]1CCOC[C@@H]1Oc1ccccn1`, the “% Inhibition” value was -17% and the Z score worked out at 2.23.
For the molecule `C[C@@H](CC(=O)N1CCN(c2ccc(F)cc2)CC1)c1ccncc1`, the “% Inhibition” value was -6% and the Z score was determined as 0.83.
With `CCc1ocnc1C(=O)Nc1c(-c2cnn(C)c2)nc2n1CCCC2`, the “% Inhibition” value is 6% and the Z score is -0.8.
In the case of `Cc1cc(NC(=O)[C@H](C)OC(=O)c2ccc3nccn3c2)on1`, the “% Inhibition” value is 9% and the Z score is recorded as -1.2.
For `CCC#CCN1CCC2(CCC(=O)NC2)CC1`, the “% Inhibition” value is on record as 1% and the Z score was -0.1.
For `Cc1cccc(OCC(=O)N2C[C@@H](CN3CCCCC3)[C@@H](CO)C2)c1`, the “% Inhibition” value is -3% and the Z score came out at 0.51.
Take `CCn1ncc(S(=O)(=O)N2C[C@@H]3CC[C@H]2CN(C)C3)c1C`: the “% Inhibition” value is 0% and the Z score was found to be 0.02.
Consider `Cc1cc(F)c(Br)cc1NS(=O)(=O)C1CC1`, for which the “% Inhibition” value was -13% and the Z score was determined as 1.52.
As to `CCN(CC)c1ccc(NCc2cccs2)cc1`, the “% Inhibition” value was -14% and the Z score was 2.01.
With `CC(C)CC(=O)N(Cc1cccc(F)c1)c1ccc(CC(=O)NCCc2ccccc2)cc1`, the “% Inhibition” value is listed as -8% and the Z score amounted to 0.81.
For `COc1ccc2c(c1F)CC[C@@H]2NCc1occc1C`, in that order: -9% and 0.85.
For `CC(=O)C(=O)N(CC1CCN(Cc2ccccc2F)CC1)C[C@H]1CCCO1`, in that order: -12% and 1.72.
Turning to `CC(C)(C)OC(=O)N[C@@]1(C(=O)N2CCNC(=O)C2)CC1(F)F`, the “% Inhibition” value is on record as -3% and the Z score turned out to be 0.31.
`Cc1cc(=S)cc(C)n1CCCc1ccccc1`: the “% Inhibition” value was 4% and the Z score is on record as -0.46.
Take `CC[C@@H](C(=O)NCCOC)n1cc(-c2nc(-c3ccccc3F)no2)ccc1=O`: the “% Inhibition” value is listed as -20% and the Z score worked out at 3.73.
With `O=C(CC[C@@H]1N=C(O)N(Cc2ccccc2)C1=O)N1CCN(C/C=C/c2ccccc2)CC1`, the “% Inhibition” value is on record as -12% and the Z score was determined as 1.3.
Turning to `CCc1nn(-c2ccc(F)cc2)c(N2CCN(C(C)C)CC2)c1CN(CC(C)C)C(=O)C1CCCC1`, the “% Inhibition” value was -3% and the Z score amounted to 0.39.
Consider `CC(NC(=O)C1C(c2ccc(NC(=O)Cc3ccccc3)cc2)OC(=O)N1Cc1ccc(F)cc1)c1ccccc1` (stereo not drawn), for which the “% Inhibition” value is reported as 26% and the Z score is -2.47.
Consider `C[C@@H](C(=O)Nc1ccccc1N(C)Cc1ccccc1)S(C)(=O)=O`, for which the “% Inhibition” value is recorded as -2% and the Z score was 0.31.
For `CC1(C)CN(S(=O)(=O)c2cccc(C(=O)NC[C@H]3CCOC3)c2)CCO1`, in that order: -21% and 2.27.
As for `O=C(c1ccc2ccccc2c1)N1CCC[C@H]1c1ccc2c(c1)OCCO2`, the “% Inhibition” value is recorded as -10% and the Z score amounted to 1.63.
For the molecule `Cn1c(=O)c2c(-c3ccccc3)n3c(c2n(C)c1=O)[C@@H](c1ccc(O)cc1)Nc1ccccc1-3`, the “% Inhibition” value is reported as 5% and the Z score is recorded as -1.01.
For `O=C(c1ccc(-n2nnc3cccnc32)cc1)N1CCN(c2ccccc2F)CC1`, in that order: -4% and 0.71.
For `Cc1cccc(N2CCN(C(=O)C3CCN(S(=O)(=O)Cc4ccccc4Cl)CC3)CC2)c1C`, in that order: -2% and 0.31.
As to `COc1cc(CN2C[C@@H](C)CN(C)c3ccccc32)cc(OC)c1OC`, the “% Inhibition” value is reported as -1% and the Z score is listed as 0.16.
Regarding `Nc1ncc(Cl)cc1S(=O)(=O)N1CCCC[C@H](N2CCCC2)C1`, the “% Inhibition” value is given as -2% and the Z score is 0.22.
As for `NC(=O)C(=O)NCc1ccc(-c2ccoc2)o1`, the “% Inhibition” value was -5% and the Z score was determined as 0.71.
For `CC(C)(C)C(=O)Nc1cnc2ccnn2c1`, in that order: 1% and -0.19.
For `CCC(=O)N(CCn1ccnc1)Cc1ccccc1Br`, in that order: -4% and 0.52.
As to `Cc1n[nH]c2nc3ccccc3c(-c3ccccc3)c12`, the “% Inhibition” value is reported as -17% and the Z score is on record as 2.78.
Turning to `CO[C@@H](C)c1nsc(NCc2ccc3c(c2)CNC3)n1`, the “% Inhibition” value is given as -7% and the Z score came out at 0.94.
